Among all 110,000 compounds or so, about 230 (0.21%) showed an effect of 50% or more. This is one part of the list.
target: DPAP1 (Plasmodium falciparum, UniProt Q8IIJ9); assay: primary screen, percent inhibition; read by cleavage of a fluorogenic dipeptide substrate; higher = more effect of the substance; parameters: species or system P. falciparum D10 trophozoite lysates; single well
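Note: 30 min substrate incubation versus DMSO and 10 µM JCP410 controls.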

DPAP1, sequence (Q8IIJ9 whole entry, looked up): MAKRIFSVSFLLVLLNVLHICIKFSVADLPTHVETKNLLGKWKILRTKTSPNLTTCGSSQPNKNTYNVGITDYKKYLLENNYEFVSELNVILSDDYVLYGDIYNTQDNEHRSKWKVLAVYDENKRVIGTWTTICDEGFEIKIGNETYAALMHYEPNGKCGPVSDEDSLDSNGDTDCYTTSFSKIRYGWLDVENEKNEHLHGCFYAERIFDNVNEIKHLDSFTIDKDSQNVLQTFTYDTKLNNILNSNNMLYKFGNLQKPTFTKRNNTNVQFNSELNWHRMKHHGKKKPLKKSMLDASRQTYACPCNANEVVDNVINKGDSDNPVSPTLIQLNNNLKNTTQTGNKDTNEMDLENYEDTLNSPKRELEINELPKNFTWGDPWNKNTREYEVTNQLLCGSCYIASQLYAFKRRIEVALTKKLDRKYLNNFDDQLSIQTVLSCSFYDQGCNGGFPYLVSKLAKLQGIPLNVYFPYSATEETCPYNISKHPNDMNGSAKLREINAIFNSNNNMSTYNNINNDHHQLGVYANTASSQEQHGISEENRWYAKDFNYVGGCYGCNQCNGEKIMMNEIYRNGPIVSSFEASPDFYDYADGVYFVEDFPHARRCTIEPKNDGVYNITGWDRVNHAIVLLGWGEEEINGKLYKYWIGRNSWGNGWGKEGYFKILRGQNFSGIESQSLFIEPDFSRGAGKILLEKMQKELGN

Point of comparison: `CCc1c(C#N)c(N)nc(SCC(=O)c2ccc(Cl)c(Cl)c2)c1C#N`, “% Inhibition @ 10 uM” value -0.736%. Against it:
- COC(=O)c1sccc1NC(=O)c1sc2ccccc2c1Cl — higher, 5.31%
- Cc1nn2c(C(F)(F)F)cc(-c3ccc(Cl)cc3)nc2c1C(N)=O — lower, -6.41%
- COc1ccc(CNC(=O)CCNS(=O)(=O)c2ccc(Br)s2)cc1 — lower, -4.79%
- O=C(Nc1ccc(Cl)cc1)Nc1ccc(S(=O)(=O)N2CCCCCC2)cc1 — lower, -2.74%
- CCOP(=O)(CN1CCCCCC1=O)OCC — lower, -3.27%
- C=CCn1c2ccccc2n2cc(-c3ccc(Cl)cc3)nc12 — higher, 1.27%
- Brc1ccc(OCCCCCN2CCCC2)cc1 — higher, 4.9%
- Cc1cc(C)c(Cn2c(C)c(CNCc3cccc(Cl)c3)c(C(=O)O)c2C)c(C)c1 — higher, 6.02%
- COc1ccccc1CNC(=O)c1ccc(CSCc2cccc(F)c2)o1 — lower, -4.53%
- N=Cc1c(-c2ccccc2)nn(-c2nc3ccccc3s2)c1O — lower, -3.46%
- O=C(NCCCC[C@H](NC(=O)[C@H](Cc1ccc2ccccc2c1)NC(=O)C1CCNCC1)C(=O)CO)OCc1ccccc1 — lower, -2.35%
- Cc1ccc(CNC(=O)Cn2ccc3cc(S(=O)(=O)N4CCC(C)CC4)ccc32)o1 — lower, -2.74%
- CCc1ccc(Cn2nnc(C(=O)O)c2C(=O)O)cc1 — lower, -3.13%
- O=C(c1ccccc1)N1CCN(C2CC(=O)N(CCc3ccccc3)C2=O)CC1 (centres unmarked) — higher, 1.91%
- CN(CCc1ccccn1)C1CCC(c2ccccc2)CC1 (centres unmarked) — higher, 4.75%
- O=[N+]([O-])c1ccc(Cl)c(CN2CC=C(c3ccc(F)cc3)CC2)c1 — higher, -0.0648%
- CC(=O)NC(=O)/C(=C(/C)NCc1ccccc1)c1ccccc1 — lower, -8.38%
- COc1ccc(C2C(C(=O)C(C)(C)C)=C(O)C(=O)N2Cc2ccccc2)cc1 (centres unmarked) — lower, -3.94%
- Oc1c2nc3ccc(F)cc3c-2ncn1CCN1CCC(Cc2ccccc2)CC1 — lower, -5.36%
- O=C(Nc1nnc(S(=O)(=O)N2CCCCCC2)s1)c1cccs1 — higher, 4.86%
- CCCCNC(=O)C1CCN(S(=O)(=O)N2CCOCC2)CC1 — lower, -1.56%
- Cc1ccc(C)c(S(=O)(=O)NCC(=O)N2CCCC2)c1 — higher, 1.87%
- O=C(CN1C(=O)c2ccccc2S1(=O)=O)Nc1ccc2c(c1)OCO2 — higher, 0.727%
- CN(CCc1ccccn1)Cc1cccc(Cl)c1Cl — lower, -1.5%
- CC(C)N(Cc1ccccc1)C(=O)C1CCCN1S(=O)(=O)c1cccc2nsnc12 (centres unmarked) — lower, -2.48%
- CC(=O)NCCc1ccc(S(N)(=O)=O)cc1 — higher, 3.58%
- Cc1ccccc1OC(C)C(=O)Nc1ccccc1Cl (centres unmarked) — lower, -2.19%
- O=C(NCc1cccc(Cl)c1)c1nc(O)c2nnn(Cc3ccccc3)c2n1 — lower, -1.82%
- Cc1ccc(C)c(OCC(=O)Nc2ccc(F)cc2F)c1 — lower, -5.62%
- Cc1ccc(-c2ccccc2)n1-c1ccc(O)cc1 — lower, -6.6%
- Cc1ccccc1C(=O)N(Cc1cccc(F)c1)C1CCS(=O)(=O)C1 (centres unmarked) — higher, 5.17%
- CS(=O)(=O)N(CC(=O)N1CCN(Cc2ccccc2)CC1)c1ccccc1Cl — lower, -2.74%
- Cc1cc(O)n2nc(-c3ccccc3C)cc2n1 — lower, -7.19%
- Cc1ccc(CNC(=O)N2CCN3CCCCC3C2)cc1 (centres unmarked) — lower, -4.96%
- CC(C)(C)OC(=O)N1CCC(c2c(C(=O)O)cnn2-c2ccccc2)CC1 — lower, -1.03%
- OCCCNCC(O)Cn1c2ccccc2c2ccccc21 (centres unmarked) — lower, -1.47%
- c1csc(C2=Nn3c(nnc3-c3ccc4c(c3)OCO4)SC2)c1 — higher, -0.628%
- COc1ccccc1Nc1nc(OCC(F)(F)F)nc(OCC(F)(F)F)n1 — higher, 0.67%
- Cc1ccc(S(=O)(=O)NCC2CCC(C(=O)NCCCSC3CCCCC3)CC2)cc1 (centres unmarked) — lower, -0.971%
- CC12C=CC3(CN(Cc4ccccc4)C(=O)C3C1C(=O)NCCc1ccc(Cl)cc1)O2 (centres unmarked) — lower, -2.14%
- CC(CCc1ccccc1)NC(=O)CCCC(=O)c1ccccc1 (centres unmarked) — lower, -8.86%
- Cc1cccc(C)c1-n1ncc(C(=O)N2CCOCC2)c1C1CCN(C(=O)OC(C)(C)C)CC1 — higher, 2.09%
- COc1ccc(OC)c(S(=O)(=O)N2CCN(c3cc(Cl)ccc3Cl)CC2)c1 — lower, -4.52%
- Sc1nnc2[nH]c3ccccc3c2n1 — higher, 56.9%
- CC(C)CC(C(=O)NCC#N)n1cnc2c(NCCCN3CCOCC3)ncnc21 (centres unmarked) — lower, -1.41%
- O=C(O)c1ccc(CN2C(=O)c3ccccc3C2=O)cc1 — higher, 3.25%
- O=C(Cn1c2ccccc2c2cnnc(O)c21)NCCc1ccc(Cl)cc1 — higher, 1.38%
- CCOc1ccc(C(=O)N2CCc3ccccc3C2)cc1 — lower, -11.7%
- CCOc1ccc(C2C3=C(O)c4ccccc4C3=Nc3nc(N)nc(O)c32)cc1 (centres unmarked) — higher, 6.47%

— publication PMC6919601, “Identification of Plasmodium dipeptidyl aminopeptidase allosteric inhibitors by high throughput screening” (PLoS ONE, 2019)
